This experiment addresses Recombinant purified α-isoform of mammalian PP1 (residues 1–330), tag cleaved (mammalian) (UniProt P62136). In words: NMR titration; 1H-15N HSQC spectra of 15N-labelled CRI alone and in the gel-filtration-purified complex with unlabelled PP1; 50 mM sodium phosphate, 200 mM NaCl, 1 mM DTT, pH 6.8, 10 °C; both purified.

Sequences of proteins named here, by UniProt entry; tags and fusion partners are left off.
UniProt P62136: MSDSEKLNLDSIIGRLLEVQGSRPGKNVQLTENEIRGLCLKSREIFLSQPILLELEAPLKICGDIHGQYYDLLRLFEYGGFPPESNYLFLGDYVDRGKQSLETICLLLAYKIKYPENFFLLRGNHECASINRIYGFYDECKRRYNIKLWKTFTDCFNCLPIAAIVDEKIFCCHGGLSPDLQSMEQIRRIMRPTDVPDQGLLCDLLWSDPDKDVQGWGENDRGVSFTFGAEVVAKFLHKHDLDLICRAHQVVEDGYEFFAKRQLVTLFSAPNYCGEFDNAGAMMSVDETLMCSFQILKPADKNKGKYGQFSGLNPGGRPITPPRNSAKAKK

These are yes or no findings as the source states them, for the method shown. Some results given as binding are weak or reduced against the parent protein; the word gives no strength.

B1: Rif1 CRI (residues 2093–2190), purified, wild type (domain or fragment, UniProt Q6PR54 2093-2190)
chain: TSPEKLELDSFGSVNESPSGMQQARCVWSPLASPSTSILKRGLKRSQEDEISPVNKIRRVSFADPIYQAGLADDIDRRCSVVRSHSSNSSPIIKSVKT
As to B1, the binding entry is reported as “binds”.

Source of the values: article PMC5437018.
